Source: patent US12551573B2, “Compositions and methods for the targeting of PCSK9” (Scribe Therapeutics Inc., priority 2022, dated 2026)

B1: DOMAIN_14994 (protein)
chain: FQGSVTFRDVSIDFSQEEWEWLQPAQRDLYRHVMLENYGHLVSLGLNMSKPDVVSLLEQGKEPWLGNGDVSRELFPASKSN
modifications: Bison bison
B2: DOMAIN_14862 (protein, listed as Callithrix jacchus)
chain: EMEPLTFRDVAIEFSLEEWQCLNPAQQDLFRNVMLENYRNLVFLGIAASKPDLITCLEKAKEPWKMKQHEMVDEPPGASTF
B3: DOMAIN_15159 (protein)
chain: MAFRDVAVDFTQDEWVLLSPAQRSLYREVMLENYSNLVSLGIPFSKPKLITQLEQGKESWREERKCSPVSCLGEWGHWVVQ
modifications: Ovis aries
B4: DOMAIN_14974 (protein, listed as Sapajus apella)
chain: AQKVLTFRDVAIEFSLEEWKFLDPAQQNLYRDVMLENYRNLFSIGLTVSKPGLITCLEQRKAPWNLKRREAVDGHPAMSSH
B5: DOMAIN_14849 (protein)
chain: GPLTFRDVTIEFSHEEWKCLDPAQKALYKDVMLENYRNLVFLGITPKCTTKELPPIGNNNTGEKFRTVTLERHECYDIEDI
modifications: Cebus imitator
B6: DOMAIN_15137 (protein)
chain: AKAPVTFGDLAIYFSQEEWEWLSPIQKDLYEDVMLENYQNLVSLGLSFRRPNVISLLEKGKAPWMVDPVKRRRGLDLGSKC
modifications: Ovis aries
B7: DOMAIN_15102 (protein, listed as Acinonyx jubatus)
chain: KPGALSFADVAVYFSSEEWGCLRPAQRALYRDVMRETYGHLGALGCAGPKPALISWLERNTDDWEPAALDPQECPRGVAVQ
B8: DOMAIN_15197 (protein, listed as Acinonyx jubatus)
chain: B7 chain with K1R, G3R, L5V, S6K, S16T, R35Q
B9: DOMAIN_14820 (protein, listed as Callithrix jacchus)
chain: PQVSLTFEDVAVLFTRDEWRKLAPSQRNLYRDVMLENYRNLVSLGLPFTKPKVISLLQQGEDPWKVEKDCFGGSFLGCKSN
B10: DOMAIN_14815 (protein)
chain: PQESVAFDDVAVYFTKKEWAIMVPDQRALYRDVMLENYEAVAFVAVPPTSKPALVSHLEQGKEPCFTQPQGVLSRRDWRAG
modifications: Cebus imitator
B11: DOMAIN_15119 (protein, listed as Callithrix jacchus)
chain: B10 chain with V55I
B12: DOMAIN_14948 (protein, listed as Acinonyx jubatus)
chain: NSQGLLTFRDVAIEFSQEELRCLNHSQWELYRDVMFENYGHLLFLGLVVSKPDLVIFLEQKKDVWAVKRKETVATHPGRWE
B13: DOMAIN_15086 (protein)
chain: AQVSVTFDDVAVTFTQEEWGHLEPAQRTLYQEVMLETCRLLMSLGCPVPRPELIYQLEHGQELWTVKRDLSRSTCPGYSSE
modifications: Ovis aries
B14: DOMAIN_14905 (protein, listed as Rhinopithecus roxellana)
chain: PQESVAFEDVAVYFTTKEWAIMMPAERALYRDVMLENYEAVAFVVPPTSKPALVSHLEQGKESCFIQPQGVLSRSDWRAGL
B15: DOMAIN_15234 (protein, listed as Acinonyx jubatus)
chain: AQAPLSFEDVAVSFSREEWRLLVPAQKDLYRDVMLENYRNLVSVGYQASEPDSLFQLEHGGPLWVVEGAAPRPPCPEEIWE
B16: DOMAIN_14978 (protein, listed as Acinonyx jubatus)
chain: KPGALSFADVAVYFSSEEWGCLRPAQRALYRDVMRETYGHLGALGFAGPKPALISWMERKKEAWSPEAEDPEDRARHPGYG
B17: DOMAIN_14795 (protein, listed as Rhinopithecus roxellana)
chain: SLESELFRDVAIVFSQEEWQCLAPAQRDLYRDVMLETYSNLVSLGLAISKPDVISFLEQGKEPWMVERVVSGGLCPVLKYR
B18: DOMAIN_15070 (protein, listed as Callithrix jacchus)
chain: B17 chain with S1P, E3G, C21W, S71A, K79E, Y80S
B19: DOMAIN_14885 (protein)
chain: SKAPITFGDLAIYFSQEEWEWLSPIQKDLYEDVMLENYRNLVSLGLSFRRPNVITLLEKGKAPWMVEPARRRRGPELTEAS
modifications: Cebus imitator
B20: DOMAIN_14977 (protein, listed as Sapajus apella)
chain: MAHLMFRDVAIDFSQEEWEGLDLKQRDLYRDVMLENYSNMVSLGLCIYQPDVFSLLEKGKEPWKILRDETRGPCPDMQSRC
B21: DOMAIN_15042 (protein)
chain: PQEPVTFADVAVLFTPEEWLFLDSSQKSLYRDVMLENYRNVASVGDQLCKTRMSSHLEQREELCVTERGIFPGAHLGPHLQ
modifications: Ovis aries
B22: DOMAIN_15241 (protein, listed as Odocoileus virginianus)
chain: SLGSDLFRDVAIVFSQEEWEQLAPTQRDLYRDVMLETYSNLVSLGLAVSKPDVISFLEQGKEPWTVEEVAAGGLCPVLKSR
B23: DOMAIN_14864 (protein, listed as Macaca mulatta)
chain: SVAFEDVAVNFTQEEWSLLDPSQKNLYREVMQETLRNLASIGKKWKDQNIENEYKNPRSNQRGLMEERLFESEGHQPGEIL
B24: DOMAIN_14939 (protein, listed as Callorhinus ursinus)
chain: QQRPVSFKDVVVGFTQEEWHRLNPAQRALYRDVMLETYSNLVSVGYEGTKPYVILKLEQEEAPWICEAACSGCHCQENICQ
B25: DOMAIN_14995 (protein)
chain: VQEPVTFKDVAVDFTQEEWGQLDLVQRTLYRDVMLETYGHLLSVGNQIAKPEVISLLEQGEEPWSVEQTCPQRACPEWMRN
modifications: Cebus imitator
B26: DOMAIN_15083 (protein)
chain: AHMSLSFRDVAIDLSQEEWECLDPVQRALYRDVMLENYSNLVSLGCSTPKPDMITLLEQEKEPWMIMREGTGSWFTGLESK
modifications: Ovis aries
B27: DOMAIN_15174 (protein)
chain: SQSLVTFGDVAINFSQEEWEWLNSAQRNLYRSVMLENYRNLVSLGLCVSKPDMISSLEQRKEPWMVKRKLTRGRCPDLKAV
modifications: Vulpes vulpes
B28: DOMAIN_14829 (protein, listed as Rhinopithecus roxellana)
chain: SCEGSVSFRDVAINFSREEWQHLDPSQRNLYRDVMLETYSHLLSVGYQVPEAEVVMLEQGKEPWALQGERPRQSCPGEKLW
B29: DOMAIN_14845 (protein)
chain: B28 chain with C2Y, N14D, Q21R, P25L, K61N, R72H
modifications: Cebus imitator
B30: DOMAIN_14901 (protein, listed as Bos taurus)
chain: MKLGSVTFEDVAVYFSWEEWALLDEAQRCLYHDVMLENFALTSSLVVSSSSHTIAQLGLGEESFVLPRMHMIPLSTRWAQR
B31: DOMAIN_15233 (protein, listed as Rhinopithecus roxellana)
chain: MVTFEDVAVHFTKTEWTGLSPAQRALYRSVMLENFGNLTALGYPVPKPALISLLEGGDMAWGLEAQDDPLAERTKNICKGV
B32: DOMAIN_22153 (protein, listed as Zalophus californianus)
chain: VRMPVTFEDVAVTFTQEEWGQLDPAQRTLYQEVMLETCGLLVSLGCPLPKPELFYPLDHSPELQTLKRGLSPNSCPGDSTK
B33: DOMAIN_22270 (protein, listed as Pan paniscus)
chain: GPLTFRDVAIEFSQEEWKSLDPVQKALYWDVMLENYRNLVFLGILPKCMTKELPPIGNSNTGEKCQTVMLERHECYDVENF
B34: DOMAIN_21755 (protein, listed as Equus caballus)
chain: MEGLVMFRDVAVDFSQEEWACLDPAQRGLYRDVMLENYHHLVSLGLSLSKPDVISLLEQGKEPWMVSRNMAGGWCPDRLKN
B35: DOMAIN_23394 (protein)
chain: MAPSQGRLTFEDVAIEFSQEEWECLDPAQRALYGEVMLETYRNLVSLGLTSKDSCSLRKKPRRRRRGQKRTREWPLLRYH
modifications: Vicugna pacos

tested on: HBEGF locus; format: cell-based, human; details: high-throughput screen of dXR repression of the HBEGF gene; abundance of each domain in the library before and after diphtheria toxin selection; HEK293T cells

Row | Molecule | Log2 (fold change)
1 | B1 | 2.4997
2 | B2 | 2.8116
3 | B3 | 3.2135
4 | B4 | 2.9963
5 | B5 | 2.3659
6 | B6 | 2.7071
7 | B7 | 3.0929
8 | B8 | 3.0957
9 | B9 | 2.8836
10 | B10 | 3.3826
11 | B11 | 3.3838
12 | B12 | 3.3727
13 | B13 | 3.5994
14 | B14 | 3.372
15 | B15 | 3.546
16 | B16 | 3.0358

Row | Molecule | Log2 (fold change)
17 | B17 | 2.8119
18 | B18 | 4.0108
19 | B19 | 3.5373
20 | B20 | 3.0085
21 | B21 | 3.0774
22 | B22 | 3.3955
23 | B23 | 3.3492
24 | B24 | 2.3884
25 | B25 | 3.5057
26 | B26 | 2.7541
27 | B27 | 3.1387
28 | B28 | 2.7188
29 | B29 | 2.7224
30 | B30 | 2.9774
31 | B31 | 2.788

same assay, conditions: high-throughput screen of dXR repression of the HBEGF gene; change in abundance of each domain in the library before and after diphtheria toxin selection

Row | Molecule | Log2 (fold change)
32 | B32 | 3.6967
33 | B33 | 2.3813
34 | B34 | 3.1889
35 | B35 | 4.0769

Substitutions are numbered along the chain they refer to.
